Data from PubChem BioAssay AID463173 (ICCB-Longwood Screening Facility, Harvard Medical School, 2010).
The whole screen tested about 52,000 compounds, of which about 1,700 (3.3%) were called active. Cut-off read from the data, not from the text of the source: active = survival mostly below about 52% (no sharp cut-off); inactive = mostly above about 56%. The list shows a part of the results.

These compounds were tested on Wild type (assay: growth inhibition of S. aureus wild type versus tarO mutant, primary screen, teichoic acid synthesis inhibitors, RN4220, OD600 (AID 463173)). Conditions: S. aureus RN4220 wild type/DeltatarO growth, OD600, 18 h, stronger effect = lower value, screened at 18.75 µg/mL (by protocol).

| Compound | survival |
| --- | --- |
| Cc1cn2c(=O)cc(COC(=O)c3cccc(NC(=O)COc4ccccc4Cl)c3)nc2s1 | inactive: 124% |
| CCOC(=O)c1ccccc1NC(=O)N1CCc2c(sc(C)c2CC)C1c1ccccc1 (stereo unspecified) | inactive: 130% |
| COc1ccccc1-c1nc2c(c(SCc3cccc(Cl)c3)n1)Cc1c(CO)cnc(C)c1O2 | inactive: 93% |
| O=C(O)CNCc1nc2ccccc2[nH]1 | inactive: 94% |
| N[n+]1cnn(CC(=O)c2ccc(Cl)cc2)c1 | inactive: 107% |
| Cc1cccc(NC(=O)C(=O)NCC(c2ccc3c(c2)OCO3)N2CCOCC2)c1C (stereo unspecified) | inactive: 79% |
| Cc1cc(C)c(NC(=O)C2CCN(c3nc4ccccc4[nH]3)CC2)c(C)c1 | inactive: 81% |
| O=C(Nc1cccs1)Nc1cc(C(F)(F)F)ccc1Cl | inactive: 26% |
| Cc1ccc(Cl)cc1N1CCN(C(=O)c2cnc(N3CCOCC3)c3ccccc23)CC1 | inactive: 126% |
| COC(=O)c1cc2c(ccn2C)n1CC(=O)N(C1CCCCC1)C1CCCCC1 | inactive: 113% |
| CN1CCN(C(CNC(=O)c2cccc(F)c2)c2ccc3c(c2)OCO3)CC1 (stereo unspecified) | inactive: 77% |
| CCOc1ccc(-n2c(Cc3ccccc3)nnc2SCc2nc(-c3ccccc3OC)no2)cc1 | inactive: 66% |
| CC(C)c1cc(C(F)(F)F)n2nc(C(=O)O)cc2n1 | inactive: 108% |
| Cc1ccc2c(c1)-c1nc(-c3ccc(Cl)cc3)cc(-c3coc4ccccc4c3=O)c1CO2 | inactive: 139% |
| O=C(Nc1ccc2oc(-c3ccccc3F)nc2c1)c1ccccc1Cl | inactive: 72% |
| Cc1cccc(CSc2ncc(CO)n2Cc2ccc(F)cc2)c1 | inactive: 134% |
| CCCSc1ncc(Cl)c(C(=O)Nc2ccc(S(=O)(=O)Nc3ncccn3)cc2)n1 | inactive: 90% |
| COc1ccc(NC(=O)CSc2ncc3c(n2)-c2cc(Cl)ccc2N(Cc2ccccc2F)S3(=O)=O)cc1 | inactive: 65% |
| CCn1nnnc1SCC(=O)c1ccc(OC)cc1OC | inactive: 105% |
| COC(=O)Nc1ccc(S(=O)(=O)N2CCCCC2)cc1 | inactive: 99% |
| CC1CC(C(F)(F)F)n2ncc(C(=O)O)c2N1 (stereo unspecified) | inactive: 108% |
| Cc1cc(C)c2c(=O)cc(C(=O)Nc3sc4c(c3C(=O)NCc3ccccc3)CCCC4)oc2c1 | inactive: 82% |
| CC(=O)Nc1ccc(S(=O)(=O)c2cc(O)ccc2O)cc1 | inactive: 103% |

| Compound | survival |
| --- | --- |
| Fc1ccc(-n2ncc3c(NCCCN4CCOCC4)ncnc32)cc1 | inactive: 57% |
| O=C(Nc1ccc2nc(SCC(=O)N3CCCc4ccccc43)sc2c1)c1cccc(F)c1 | inactive: 80% |
| COC(=O)c1cc(S(=O)(=O)NCC2CCN(Cc3ccc(F)cc3)CC2)cn1C | inactive: 120% |
| Cn1ccnc1SCC(=O)n1c2c(c3ccccc31)CCCC2 | inactive: 104% |
| COc1cc(-c2nnc(SCCOc3ccc(Cl)cc3C)o2)cc(OC)c1OC | inactive: 112% |
| CCOC(=O)c1c(NC(=O)CSc2cn(CCNC(=O)c3ccccc3F)c3ccccc23)sc2c1CCC2 | inactive: 76% |
| COc1cccc(CNC(=O)c2ccc(CSc3nc4ccncc4n3Cc3cccc(C)c3)cc2)c1 | inactive: 82% |
| Cc1ccc2c(c1)N(CCC(=O)NCc1ccc(F)cc1)C(=O)CO2 | inactive: 87% |
| COc1cc(NC(=O)CCc2c(C)nn(-c3ccc4nncn4n3)c2C)cc(OC)c1OC | inactive: 84% |
| COc1ccc2ncc(C(=O)O)c(NCCO)c2c1 | inactive: 100% |
| Cc1ccc(Cl)cc1N1CCN(S(=O)(=O)c2ccc3[nH]c4c(c3c2)CCCCC4)CC1 | inactive: 83% |
| CCOCCc1nn2c(=O)cc(COC(=O)CNC(=O)c3ccc(C(C)(C)C)cc3)nc2s1 | inactive: 126% |
| COc1cccc(N2CCN(C(=O)c3ccc4c(=O)n(CCc5ccccc5)c(=O)[nH]c4c3)CC2)c1 | inactive: 68% |
| O=C(NC(=S)NC1CC1)c1cccnc1 | inactive: 100% |
| COc1ccc(NC(=O)CSc2cn(CC(=O)N3CCOCC3)c3ccccc23)cc1OC | inactive: 96% |
| Cc1c(CC(=O)NCCc2ccccc2F)c(=O)oc2c(C)c3occ(C(C)(C)C)c3cc12 | inactive: 73% |
| CC(C)COC(=O)/C(C#N)=C\c1ccc(-c2ccccc2Cl)o1 | inactive: 60% |
| COc1ccccc1CNS(=O)(=O)c1cc(C(=O)Nc2cccc(C(F)(F)F)c2)ccc1F | inactive: 85% |
| COC(=O)Cn1c(O)c(N=NC(=O)c2ccc3c(c2)OCO3)c2ccccc21 | inactive: 111% |
| Cc1ccc(Cl)c2c1N[C@@H](c1ccc(C(=O)O)cc1)[C@H]1CC=C[C@@H]21 | active: 10% |
| Cc1cccc(OCC(=O)Nc2c(C)ccc3nsnc23)c1C | inactive: 87% |
| CCc1ccc(S(=O)(=O)c2nnn3c2nc(N2CCC(C)CC2)c2cc(Cl)ccc23)cc1 | inactive: 128% |
| COc1ccc(-c2cc(C(=O)NCc3cc(OC)c(OC)c(OC)c3)[nH]n2)cc1 | inactive: 64% |

| Compound | survival |
| --- | --- |
| O=C(Cn1nc(-c2ccc3c(c2)OCCO3)ccc1=O)Nc1ccc(N2CCOCC2)cc1 | inactive: 102% |
| O=C(Nc1ccccc1)C(Cc1ccccc1)N1Cc2ccccc2C1=O (stereo unspecified) | inactive: 90% |
| O=C(CSc1ncc(S(=O)(=O)c2ccc(Br)cc2)c(=O)[nH]1)NCc1ccc(Cl)cc1 | inactive: 86% |
| Cc1ccc(C)c(NC(=O)CCN2C(=O)c3ccccc3Sc3ncccc32)c1 | inactive: 90% |
| COc1ccc(C2=NS(=O)(=O)N(C)C(C(=O)Nc3cc(C)ccc3O)=C2)cc1OC | inactive: 69% |
| O=C1CS/C(=N\N2CCOCC2)N1Cc1ccccc1 | inactive: 120% |
| COc1cccc(N2CCN(S(=O)(=O)c3cc(Br)cc4c3N(C(=O)C3CC3)CC4)CC2)c1 | inactive: 80% |
| Cc1nc(N2C(=O)c3oc4ccccc4c(=O)c3C2c2ccccc2F)sc1C (stereo unspecified) | inactive: 73% |
| CN1CCN(C(CNC(=O)C(=O)Nc2ccccc2)c2ccc3c(c2)OCO3)CC1 (stereo unspecified) | inactive: 60% |
| Cc1cccc(N2C(=O)CSC23C(=O)N(Cc2cccc(F)c2)c2ccccc23)c1 (stereo unspecified) | inactive: 80% |
| Cc1cccc(-c2noc(CN(C(=O)COc3ccc(C(C)C)cc3)C(C)C)n2)c1 | active: 3% |
| CCOC(=O)c1c(C)n(-c2ccccc2)c2ccc(OC(=O)c3ccccc3)cc12 | active: 0% |
| CCNc1nc(NC(C)CC)nc(ON=C(C)C)n1 (stereo unspecified) | inactive: 120% |
| Cc1ccc(C)c(CSc2nc3ncccc3[nH]2)c1 | inactive: 75% |
| O=C(O)CSCCn1cccn1 | inactive: 104% |
| Oc1c(C(c2ccc(Cl)cc2Cl)N2CCOCC2)sc2nc(-c3ccco3)nn12 (stereo unspecified) | inactive: 77% |
| CCc1ccc(NC(=O)Cn2c(=O)c(-c3ccccc3NC(C)=O)nc3ccccc32)cc1 | inactive: 85% |
| COc1cccc(CNC(=O)CSc2nc(=O)[nH]c3c2CCCC3)c1 | inactive: 77% |
| CCn1ccc2cc(S(=O)(=O)N3CCCN(C(=O)Nc4ccccc4C(F)(F)F)CC3)ccc21 | inactive: 131% |
| CCOC(=O)c1cc2c(ccn2-c2ccc(F)cc2)n1CC(=O)c1ccc2c(c1)OCCO2 | inactive: 87% |
| CCOc1ccc(S(=O)(=O)N(CC(=O)NCCSCc2ccc(C)cc2)c2ccccc2)cc1 | inactive: 91% |
| Cc1ccc2c(=O)cc(C(=O)Nc3nnc(CC(C)C)s3)oc2c1C | inactive: 90% |
| CC1CCN(S(=O)(=O)c2ccc(N3CCCCS3(=O)=O)cc2)CC1 | inactive: 70% |

| Compound | survival |
| --- | --- |
| COc1ccc(CCNC(=O)Cn2cc(S(=O)(=O)Cc3ccccc3F)c3ccccc32)cc1OC | inactive: 77% |
| Cc1cccc(Cn2c(=O)n(CCC(=O)NCc3ccc4c(c3)OCO4)c(=O)c3sccc32)c1 | inactive: 93% |
| O=C(CC1N=C2c3ccccc3N=C(SCC(=O)Nc3cccc(Cl)c3)N2C1=O)NCc1cccs1 (stereo unspecified) | inactive: 82% |
| Cc1ccc(C)n1-c1nnc(N2CCC(C(=O)Nc3ccccc3Br)CC2)s1 | inactive: 88% |
| Cc1ccsc1CNCCCO | inactive: 107% |
| CCn1c(SCC(=O)Nc2ccc(C)cc2Br)nnc1-c1nonc1NC(C)=O | inactive: 86% |
| CCc1ccc(NC(=O)c2ccc3c(c2)N(Cc2ccc(C)cc2)CCS3)cc1 | inactive: 99% |
| COc1ccc2c(c1)Cc1sc(NC(=O)c3ccccc3Br)nc1-2 | inactive: 83% |
| CCc1ccccc1N(C)C(=O)C1CCCN(c2ncnc3onc(-c4ccc(F)cc4)c23)C1 (stereo unspecified) | inactive: 74% |
| Cc1ccc(OCCn2c(CNc3cccc(C)c3)nc3ccccc32)cc1 | active: -21% |
| CCCN1CCc2nc(N3CCN(CC)CC3)ncc2C1 | inactive: 71% |
| CCOc1cccc(C(=O)Nc2c(C(=O)c3ccc(OC)cc3)oc3ccccc23)c1 | inactive: 38% |
| NC(=O)c1ccc(NC(=O)c2cc3ccccc3oc2=O)cc1 | inactive: 100% |
| COc1ccccc1CNc1cc(-c2ccccc2)nc2nncn12 | inactive: 78% |
| CS(=O)(=O)NCC(c1ccco1)N1CCN(c2ccccc2)CC1 (stereo unspecified) | inactive: 83% |
| COc1ccc(N2Cc3cccc(C(=O)Nc4ccc(C(C)C)cc4)c3C2=O)cc1 | inactive: 82% |
| CCCCOC(=O)c1ccc(NC(=O)c2cc(-c3ccccc3)on2)cc1 | inactive: 92% |
| CC(=O)c1ccc(C(=O)N(CCCN(C)C)c2nc3c(C)c(C)ccc3s2)cc1 | inactive: 120% |
| CCCNc1nc2ccccc2s1 | inactive: 116% |
| O=C(CN(c1ccc(Cl)c(C(F)(F)F)c1)S(=O)(=O)c1ccccc1)N1CCc2ccccc2C1 | inactive: 74% |
| O=C(c1ccc(Cl)cc1)N1CCC(c2nc(-c3ccc(F)cc3)no2)CC1 | inactive: 117% |
| CC1(C)Cc2c(sc3ncn4nc(CSc5nc6ccccc6o5)nc4c23)C(C)(C)N1 | inactive: 112% |
